# Assay results taken from PMC4336329 (PLoS ONE, 2015).
# Out of some 310,000 compounds screened, about 14,000 (4.5%) showed an effect of 50% or more. The effect is printed as a negative number. This is one part of the list.
# Target: human ether-à-go-go-related gene (hERG) potassium channel (human, UniProt Q12809)
# Assay: primary screen, population patch clamp on CHO cells stably expressing hERG
# 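Further: peak tail current of the secondary pulse compared with the same well before compound.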
# Sequence of human ether-à-go-go-related gene (hERG) potassium channel (Q12809 whole entry, looked up): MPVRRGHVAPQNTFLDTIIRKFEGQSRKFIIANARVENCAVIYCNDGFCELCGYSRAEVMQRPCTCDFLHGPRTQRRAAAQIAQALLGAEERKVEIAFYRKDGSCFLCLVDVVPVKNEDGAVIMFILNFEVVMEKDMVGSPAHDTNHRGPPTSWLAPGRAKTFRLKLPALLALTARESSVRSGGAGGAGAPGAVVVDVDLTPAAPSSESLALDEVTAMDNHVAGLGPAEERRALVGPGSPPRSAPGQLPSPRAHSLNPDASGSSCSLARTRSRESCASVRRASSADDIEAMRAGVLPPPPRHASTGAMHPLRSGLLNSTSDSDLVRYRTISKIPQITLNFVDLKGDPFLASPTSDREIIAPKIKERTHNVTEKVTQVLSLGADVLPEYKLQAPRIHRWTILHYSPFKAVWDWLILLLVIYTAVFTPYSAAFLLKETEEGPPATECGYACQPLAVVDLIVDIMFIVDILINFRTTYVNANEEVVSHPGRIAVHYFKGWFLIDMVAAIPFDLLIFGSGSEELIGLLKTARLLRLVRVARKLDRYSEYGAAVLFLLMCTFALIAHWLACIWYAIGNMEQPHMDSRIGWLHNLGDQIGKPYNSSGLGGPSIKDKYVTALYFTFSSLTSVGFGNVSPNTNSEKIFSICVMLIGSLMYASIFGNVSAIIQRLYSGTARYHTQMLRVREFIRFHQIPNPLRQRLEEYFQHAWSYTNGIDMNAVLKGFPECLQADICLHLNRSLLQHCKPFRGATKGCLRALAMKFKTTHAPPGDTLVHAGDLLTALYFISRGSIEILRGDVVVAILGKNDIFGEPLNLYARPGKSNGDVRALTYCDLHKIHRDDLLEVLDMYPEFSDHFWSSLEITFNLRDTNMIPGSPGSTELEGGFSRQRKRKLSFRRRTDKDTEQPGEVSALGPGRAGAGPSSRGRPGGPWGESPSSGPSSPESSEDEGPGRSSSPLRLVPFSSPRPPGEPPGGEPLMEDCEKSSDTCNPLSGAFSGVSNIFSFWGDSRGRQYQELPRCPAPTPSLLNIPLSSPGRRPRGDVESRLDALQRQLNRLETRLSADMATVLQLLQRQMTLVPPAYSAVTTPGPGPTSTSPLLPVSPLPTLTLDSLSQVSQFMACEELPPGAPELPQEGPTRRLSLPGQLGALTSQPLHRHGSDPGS
row,Structure (SMILES),"hERG current change (%, negative = inhibition) at 10uM [%]"
1,Cc1ccc(N2C(=O)C(F)(F)C2c2ccccc2)cc1 (centres unmarked),13.6
2,COc1ccc(CN2C(=O)c3ccccc3C2=O)cc1C(=O)O,25.6
3,O=c1[nH]c(-c2ccccc2)nc2sc(-c3ccccc3)cc12,11.5
4,COc1cc(C)c(CN2CC=C(c3ccc(F)cc3)CC2)cc1C,-37.2
5,Cc1cc(C(=O)Nc2ccc(S(=O)(=O)N3CCOCC3)cc2)ccc1[N+](=O)[O-],-46.8
6,CCCCn1c(-c2csc(CCC)c2)n[nH]c1=S,14.8
7,COC(=O)CNC(=O)Cn1nc(C)c([N+](=O)[O-])c1C,9.11
8,COc1ccccc1N=Nc1c(O)[nH]c2ccc(Br)cc12,14.2
9,CC(C)Cn1c(N)c(C(=O)COC(=O)C2CC(=O)N(Cc3ccccc3Cl)C2)c(=O)n(C)c1=O (centres unmarked),-43.1
10,Cc1cccc(N2CCN(C(=O)c3cc4c(=O)n(C)c5ccccc5c4n3C)CC2C)c1 (centres unmarked),-16
11,CCS(=O)(=O)Nc1ccc(C(=O)OC)cc1,7.75
12,Cc1nn(C)c(C)c1CNC(=O)Nc1cccc(Cl)c1,6.93
13,O=C(O)C(c1ccccc1)N1C(=O)/C(=C\c2ccc(O)c(O)c2)SC1=S (centres unmarked),25.2
14,O=C(NCC1CCCO1)c1cccc(S(=O)(=O)N(Cc2ccccc2)c2ccccc2)c1 (centres unmarked),-37.1
15,CCCOc1ccc(C(=O)CCC(=O)OCC(=O)N(C)c2c(N)n(Cc3ccccc3)c(=O)[nH]c2=O)cc1,-1.28
16,COc1cccc(Oc2c(C)oc3c(CN4CCCCC4)c(O)ccc3c2=O)c1,17.7
17,O=C(Nc1cc(Cl)ccc1O)C1CCCO1 (centres unmarked),7.88
18,Br.CCCN(CCC)C1CCc2cccc(O)c2C1 (centres unmarked),-10.6
19,O=C(CSc1ncn[nH]1)N(C1CCCCC1)C1CCCCC1,-16.5
20,CC(C)=CCCC(C)CN1CCC(n2nccc2NC(=O)C2CCCC2)CC1 (centres unmarked),-70.8
21,CCOC(=O)CSc1nnc(-c2ccc(S(=O)(=O)N3CCC(C)CC3)cc2)o1,-5.93
22,Cc1ccc(N2C(=O)N(CC(=O)N3CCCc4ccccc43)C(=O)C2C)cc1 (centres unmarked),4.51
23,Cc1ccc(CNC(=O)c2ccc3c(=O)n(CCCN4CCCC4=O)c(=S)[nH]c3c2)cc1,6.41

row,Structure (SMILES),"hERG current change (%, negative = inhibition) at 10uM [%]"
1,Cc1ccccc1N(CC(=O)Nc1ccc(F)cc1)S(C)(=O)=O,1.27
2,CCOc1ccccc1CN1CCNC(=O)C1CC(=O)NCCC1=CCCCC1 (centres unmarked),4.15
3,CCOc1ccc(S(=O)(=O)Nc2cc(OC)ccc2OC)cc1,-12.4
4,Cc1ccc(S(=O)(=O)NC(=O)Nc2cccc(C)n2)cc1,27.8
5,CC(=O)Nc1cc(C)nn1-c1nc(C)cc(C)n1,25.4
6,O=S(=O)(NC1CCCCC1)c1ccc(Cl)s1,-6.76
7,S=C(c1ccccc1)N1CCSCC1,6.14
8,CCOC(=O)N1CCN(Cc2nnc(-c3ccccc3C)o2)CC1.Cl,10.3
9,COc1ccccc1CNC(=O)C1(c2ccc(Cl)cc2)CC1,-11.7
10,Cc1ccc(C(=O)C2CCN(CC(=O)Nc3ccc(N(C)C)cc3)CC2)cc1,-36.4
11,COc1ccc(-c2c[n+]3c4n2CCCCC4=C(c2ccccc2)C3)cc1.[Br-],-75.1
12,CCC1=C(OC(=O)N(CC)CC)N2C(=O)OC(=NCC(=O)OC)[C@]2(C)[C@H]2C1=CC[C@H]1C(=O)NC(=O)[C@H]12,-15.5
13,COC(=O)c1cc(=O)n(C2CC2)c(=NC2CC2)s1,-12.2
14,CC1CCCCN1C(=O)C(Cc1ccccc1)N1C(=O)C2CCCCC2C1=O (centres unmarked),7.93
15,Clc1ccc(CSc2cc3c(nn2)-c2ccccc2CC3)cc1Cl,-6.56
16,COc1ccc2nc(NC(=O)[C@@H]3CCCN3C(=O)c3cccs3)sc2c1,-56.4
17,C=CCSC1=NC(N)=C(C#N)C2(CCCCC2)C1C(N)=O (centres unmarked),-2.72
18,C=CCN(C/C(=N\O)c1sc(C(=O)OCC)nc1C)c1cccc(Br)c1,0.291
19,COc1ccc([N+](=O)[O-])cc1NC(=O)CCN1CCN(c2ccccc2)CC1,11.1
20,Cc1ccccc1N(C(=O)c1snc(C(N)=O)c1N)C(C(=O)NCC1CCCO1)c1ccc(F)cc1 (centres unmarked),-7.02
21,O=C(Cc1c(F)cccc1Cl)N/N=C/c1cccnc1,6.3
22,CCc1noc(C)c1C(=O)NNC(=O)c1ccccc1Cl,19.2
23,CCN1CCN(CC(=O)Nc2nc3ccccc3s2)CC1.O=CO,-22.7

row,Structure (SMILES),"hERG current change (%, negative = inhibition) at 10uM [%]"
1,Cc1ccc(NC(=O)CCn2nc([N+](=O)[O-])cc2C)nc1,-8.11
2,O=C(c1ccc(CS(=O)c2cccc(Cl)c2)o1)N1CCN(c2ccccn2)CC1 (centres unmarked),-22.1
3,CC(=O)Nc1ccc(S(=O)(=O)Nc2ccccc2N2CCOCC2)cc1Cl,-1.56
4,CN1CCN(S(=O)(=O)c2ccc(NC(=S)NC(=O)c3ccccc3)cc2)CC1,-1.38
5,CC(=O)N1c2ccc(S(=O)(=O)NCCC(=O)Nc3cccc(Cl)c3)cc2CC1C (centres unmarked),3.11
6,COCc1nnc(NC(=O)COc2ccc3c(c2)OCO3)s1,14.1
7,CCOC(=O)c1c(C)n(Cc2ccccc2)c2ccc(OCC(O)CNC(C)(C)C)cc12 (centres unmarked),-41
8,Cn1c(CNc2ccccn2)c(C#N)c2ccccc21,-6.94
9,COc1ccc(F)cc1C(=O)C1CCCN(Cc2ccc3c(c2)OCCO3)C1 (centres unmarked),-54.3
10,O=C1C2CCCN2C(c2cccs2)N1c1ccccn1 (centres unmarked),2.01
11,CC(=O)Nc1ccc(OS(=O)(=O)c2cc(Cl)ccc2C)cc1,-6.02
12,COc1ccc(CNC(=S)NCc2ccc(OC)cc2)cc1,19.1
13,O=C(O)CC(NC(=O)C12CC3CC(CC(C3)C1)C2)c1ccc2c(c1)OCO2 (centres unmarked),13.4
14,CCOc1ccc(OCC)c(NC(=O)C2C3C=CC(O3)C2C(=O)NCc2ccco2)c1 (centres unmarked),-3.93
15,COc1ccc(CNC(=O)c2ccc(Cl)c(NC3=NC4CS(=O)(=O)CC4S3)c2)cc1 (centres unmarked),3.02
16,CN1CCN(C(=O)C2CCC(=O)N(CCc3cccc(F)c3)C2)CC1 (centres unmarked),12.3
17,Cc1ccccc1NC(=O)N(C(C)C)C(C)C,1.81
18,CC(=O)N1CC(C)Sc2ccc(S(=O)(=O)NCCc3ccc(C)cc3)cc21 (centres unmarked),-1.22
19,COc1ccc(C(CNC(=O)c2cccc(NS(=O)(=O)c3ccc(C)c(F)c3)c2)N(C)C)cc1 (centres unmarked),-62.6
20,CCNC(=S)NCc1ccc(Cl)cc1,0.291
21,Cc1cc(C)nc(N(C#N)Cc2cccc3ccccc23)n1,3.61
22,CCOC(=O)N1CCC(NC(=O)Cc2cn(C)c3ccccc23)CC1,0.471
23,COc1ccccc1N1CCN(S(=O)(=O)c2ccc3c(c2)CC(C)N3C(C)=O)CC1 (centres unmarked),9.69

row,Structure (SMILES),"hERG current change (%, negative = inhibition) at 10uM [%]"
1,COc1ccc(C(=O)NCCCSc2ccccc2)cc1F,8.32
2,COCC(O)CSc1c([N+](=O)[O-])nc(C)n1Cc1ccc(OC)c([N+](=O)[O-])c1 (centres unmarked),-2.82
3,COc1ccc(N2CCN(C(=O)/C=C/c3ccco3)CC2)cc1,-34.5
4,CCOC(=O)N1CCN(S(=O)(=O)c2cc(-c3nn4c(C)nnc4c4ccccc34)ccc2C)CC1,-29
5,CC1CCN(C(=O)c2[nH]cnc2C(=O)N[C@H](C)c2ccccc2)CC1,16
6,Cc1cc(C)c(S(=O)(=O)Nc2ccccn2)c(C)c1,14.9
7,CC(C)CNC(=O)COC(=O)CCC(=O)c1ccc(F)cc1,6.45
8,CN1c2ccc([N+](=O)[O-])cc2C(C)(C)C12C=Cc1cc(C(=O)O)ccc1O2 (centres unmarked),42
9,NNC(=O)c1ccc(NS(=O)(=O)c2ccc(Br)cc2)cc1,10.5
10,CCOC(=O)c1ccccc1-n1nnnc1C,10.4
11,COc1ccc(OCC(=O)N2CCOCC2)cc1,4.45
12,Cc1ccc(C(=O)NNC(=O)/C=C\C(=O)O)cc1,6.41
13,CCOc1ccc(N(CC(=O)Nc2ccc(OC)cc2)C2=NC3CS(=O)(=O)CC3S2)cc1 (centres unmarked),6.44
14,O=C(CSc1nc2ccccc2c(=O)n1-c1ccccc1)NCc1ccc2c(c1)OCO2,3.23
15,CN(C)S(=O)(=O)n1cc(/C=C(\NC(=O)c2ccccc2F)C(=O)NCCCN2CCOCC2)c2ccccc21,-15.4
16,CCOc1ccc(N2C(=O)CSC2=S)cc1,24.6
17,COc1ccc(N(C(=O)c2cccnc2)S(=O)(=O)c2ccc(Cl)cc2)cc1,-8.98
18,CCC(NC(=O)Nc1cc(C)on1)(C(F)(F)F)C(F)(F)F,9.14
19,O=C(Cn1cnc2ccccc2c1=O)N1CCN(Cc2ccc3c(c2)OCO3)CC1,-14
20,CCOc1ccc(Nc2nc(N)c([N+](=O)[O-])c(NCc3ccccc3)n2)cc1,16.4
